# Some of the results follow.
# Tested on: T1, C. trachomatis L2/434/Bu expressing GFP (CTL2-GFP)
# T1 construct: L2/434/Bu GFP intracellular growth in HeLa cells
# Design: species or system HeLa; C. trachomatis total inclusion area by high-content imaging, normalised to DMSO
# Conditions: total inclusion area; 28.5 h, 10 µM; inhibitor
# Summary of the method: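 High-content images of fixed, Hoechst-stained infected cultures supply inclusion area and count (growth) plus nuclei number (viability), complementing bulk GFP/resorufin fluorescence. MIC determination is unchanged from the primary assay.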
row,SMILES,% of control remaining
1,O=C(CCCN1C(=O)/C(=C\c2cccs2)SC1=S)Nc1cc(Cl)ccc1O [CBK263673],91.7094
2,O=[N+]([O-])c1cccnc1Oc1cccc2cccnc12 [CBK002760],88.6565
3,CCCC(=O)NC1CC(C)(C)Cc2nc(N3CCOCC3)ncc21 (centres unmarked) [CBK306883],67.9109
4,N#Cc1ccnc(N2CCC3(CCCN(CC4CCCCC4)C3=O)C2)c1 (centres unmarked) [CBK306561],43.0509
5,CCN(CC)CCn1c(NC(=O)c2c(Cl)nc3ccccn23)nc2ccccc21 [CBK298305],77.2478
6,O=C(Nc1ccc2n(c1=O)C[C@H]1C[C@@H]2CN(C(=O)Nc2ccc(F)cc2)C1)c1ccco1 [CBK289205],111.399
7,O=C(CSc1nnc(-c2ccncc2)n1-c1ccccc1)Nc1ccnc2ccccc12 [CBK267900],85.505
8,CCOC(=O)N1CCN(Cn2nc(COc3ccccc3)n(C)c2=S)CC1 [CBK265148],76.2825
9,COc1ccc(Cl)cc1CN(C)C(=O)c1ccc[nH]c1=O [CBK305933],51.3676
10,Cn1ccc(C2CCCCCN2C(=O)c2c(Cl)cnn2C)n1 (centres unmarked) [CBK284914],98.4663
11,COc1ccc(C2CC(c3nc4ccccc4[nH]3)=NN2C(=O)CCN2CCCCC2)cc1 (centres unmarked) [CBK267673],91.005
12,N#Cc1cc(Cl)ccc1CN1CCCCC1c1[nH]ncc1C(N)=O (centres unmarked) [CBK304746],62.2923
13,CCOc1ccccc1OCC(C)CNC (centres unmarked) [CBK026242G],74.5204
14,O=C(O)CCC(NC(=O)c1ccc(-c2ccc(Cl)cc2)s1)C(=O)O (centres unmarked) [CBK295171],132.013
15,Fc1ccc(CN(Cc2ccsc2)[C@@H]2COC[C@H]2c2ccc(F)cc2)cc1 [CBK286486],120.493
16,CCn1c(SCC(=O)Nc2nc(C)c(C(=O)OC)s2)nc2c1c(=O)n(C)c(=O)n2C [CBK127470],95.3208
17,Cc1cc2c([nH]c3ccccc32)c(C)n1 [CBK262689],75.7078
18,Cc1nn(-c2nc3ccccc3s2)c(O)c1C1OC(=O)c2ccccc21 (centres unmarked) [CBK267220],104.286
19,OCc1ccccc1-c1cncc(N2CCCC2CO)n1 (centres unmarked) [CBK065333],131.801
20,N#CC1(NC(=O)c2ccn(-c3cccc(F)c3)n2)CCSC1 (centres unmarked) [CBK304566],91.1133
21,CC1CN(C(=O)NC2CCCCC2)C(c2ccccc2)ON1C (centres unmarked) [CBK026650],85.6752
22,O=C1OCc2ccc3c(c21)COCO3 [CBK022696],73.1673
23,COc1ccc(NC(=O)CSc2cc(-n3cccn3)ncn2)cc1 [CBK287819],81.8312
24,CCCCn1c(SCC(=O)N(C)Cc2cnn(-c3ccccc3)c2)n[nH]c1=O [CBK296732],88.1787
25,Cc1cc2ccccc2n2c(=O)n(CC(=O)N3CCC(C)CC3)nc12 [CBK283881],112.349
26,O=S(=O)(N[C@H]1CO[C@H]2[C@@H]1OC[C@@H]2n1cc(-c2ccccn2)nn1)c1cccs1 [CBK289508],118.3
27,Nc1nccc(-c2cc(OCC(F)(F)F)ccc2OCC(F)(F)F)n1 [CBK005948],93.6241

row,SMILES,% of control remaining
1,CCC(C)(C)C(=O)Nc1ccc(Br)c2ccccc12 [CBK091342],52.9256
2,CCNC(=O)N[C@H]1CC[C@]2(C)CCC([C@H](C)C(=O)N3CCCC3)[C@H](O)[C@H]2[C@@H]1C (some centres unmarked) [CBK289456],99.6021
3,CCOC(=O)c1c(NC(=O)c2cccnc2)sc2c1CCCC2 [CBK304574],62.7461
4,CN(C)CC(=O)Nc1ccc(Br)cc1C(=O)c1ccccc1Cl [CBK264663F],109.846
5,COc1ccc(CN2CCN(C)CC2)cc1OCc1ccccc1 [CBK261886],102.044
6,O=C(NC(=S)Nc1cccc(-c2nc3cc(Cl)ccc3o2)c1)c1ccccc1Br [CBK263973],113.017
7,Clc1cc(N[C@@H]2CCN(Cc3ccccc3)C2)n2nccc2n1 [CBK037069],105.451
8,CSCCN1CCC(Oc2nccnc2OCc2cc(C)on2)CC1 [CBK082966T],96.9761
9,O=C(O)C1(NS(=O)(=O)c2ccc(Cl)cc2)CCCCC1 [CBK028566],101.691
10,C[N+]1(C)CCN(C(=O)CCC(=O)N2CC[N+](C)(C)CC2)CC1 [CBK278200I],91.583
11,O=C(O)C1(Oc2ccc3ccccc3c2)CCN(CC2CCOC2)CC1 (centres unmarked) [CBK306767],88.4015
12,c1ccc2c(c1)nc(N1CCOCC1)n2CCN1CCOCC1 [CBK269841],73.8973
13,CC(=O)NCCn1cc2c(n1)[C@H]1CN(C(=O)CC(C)C)C[C@H]1CC2 [CBK284572],53.4314
14,CN1C(=O)c2ccccc2C(O)C2(C)CN(Cc3ccccc3)CC12 (centres unmarked) [CBK282849],89.0124
15,N#Cc1ccccc1CSc1ncn[nH]1 [CBK027835],119.776
16,O=C(CCCSc1nc2sc3c(c2c(=O)[nH]1)CCCC3)NCCO [CBK263336],107.87
17,Cc1cc(C)c(C)c(S(=O)(=O)NCCCC(=O)O)c1C [CBK268898],102.683
18,CCN(Cc1nc(-c2ccccc2)no1)C(=O)c1ccoc1C [CBK270229],112.837
19,Cc1nnc(SCCCNC(=O)C2CC(=O)N(Cc3ccccn3)C2)s1 (centres unmarked) [CBK307529],65.0478
20,O=C(N[C@H]1CO[C@H]2[C@@H]1OC[C@@H]2n1cc(CC2CCCCC2)nn1)C1CC1 [CBK289509],113.985
21,CSc1nn(C)c(=O)c2c3c(sc12)CCC3 [CBK019796],67.6889
22,Cc1cc(Cl)c(S(=O)(=O)NCc2cccs2)cc1OCC(N)=O [CBK266496],124.748
23,O=C(NC1CCCCC1)C1CCCN(C(=O)NCc2ccccn2)C1 (centres unmarked) [CBK305814],63.2309
24,O=C(O)CCn1c(C2CCCCC2)nc2ccccc21 [CBK111480],89.2136
25,CCC(C)(C)Nc1cccnc1N(C)C1CCN(C(=O)c2cc3cc(N)ccc3[nH]2)CC1 [CBK016674],85.8862
26,CN1C(=O)CC2(C1=O)C(=O)N(CCN1C(=O)c3ccccc3C1=O)c1ccc(F)cc12 (centres unmarked) [CBK075451],103.427
27,CC(C)N1CCC(=NNC(=O)COc2ccc(Cl)cc2Cl)CC1 [CBK262614],109.961

row,SMILES,% of control remaining
1,CCNC(=S)NC1CC[C@@]2(C3=CC=CC4C=CC=CC34)CCN(C)[C@H]2C1 (some centres unmarked) [CBK003596C],60.1425
2,Cc1cc2cc(F)ccc2n1CCCN1CCN(c2ccncc2)CC1 [CBK039119G],37.9352
3,Cc1ccc(Cl)c(OCc2nnc(SCC(=O)O)n2N)c1 [CBK268992],47.1989
4,Cc1ccc(C2N(Cc3ccccc3)CCN2Cc2ccccc2)o1 [CBK260883],93.4442
5,CCC1CCCCN1C(=O)c1cccs1 (centres unmarked) [CBK074214],113.5
6,CC1OCN(c2ccc(C(C)(C)C)cc2)Cn2c1nc1ccccc12 (centres unmarked) [CBK018706],33.5149
7,O=C(NC[C@H]1C[C@@H]2CC[N@]1C[C@@H]2CN1CCN(c2ncccn2)CC1)c1ccco1 [CBK289115],107.825
8,O=C(NCCn1nc(-c2cccs2)ccc1=O)C1CCCC1 [CBK283840],102.481
9,O=C(Nc1ccc(N2CCNCC2)nc1)c1cnccn1 [CBK029436T],98.3521
10,CCCc1n[nH]c(=S)n1CC(=O)Nc1cc(NC(=O)C2CC2)ccc1C [CBK297740],94.0705
11,O=C(/C=C/c1ccc2c(c1)OCO2)N1CCN(c2ncccn2)CC1 [CBK144501],103.786
12,O=C(c1ccco1)N1CCN(c2cc(-c3ccsc3)ncn2)CC1 [CBK037690],154.387
13,CS(=O)(=O)N(CC(=O)Nc1ccc(S(=O)(=O)N2CCCCCC2)cc1)c1ccccc1F [CBK266829],101.816
14,Cc1ccccc1Cn1c(=O)sc2ccccc21 [CBK025408],57.3388
15,COc1ccc2[nH]c3c(c2c1)CCN1C(c2ccco2)N2CCC31CC2 (centres unmarked) [CBK284432],95.0117
16,CC(NC(=O)C1CC(=O)N(c2cccc(F)c2)C1)C1CC2CCC1C2 (centres unmarked) [CBK281664],84.3704
17,Cn1nccc1CN1CCNC(=O)C1c1ccccc1C(F)(F)F (centres unmarked) [CBK306422],74.5523
18,Cc1nc([N+](=O)[O-])c(SCC(O)CN2CCCCC2)[nH]1 (centres unmarked) [CBK261727],96.1027
19,Cc1cc(C)nc(SCCC(=O)O)n1 [CBK260975],101.557
20,COC(=O)N1CCC(C(=O)NC(c2ccccc2)c2nc(OC)cc(OC)n2)CC1 (centres unmarked) [CBK059651],70.5481
21,CC(CN(C)C(=O)c1cocn1)Oc1ccc(Cl)c(Cl)c1 (centres unmarked) [CBK304285],136.254
22,Cc1cc(C)nc(SCC(=O)Nc2ccc(S(=O)(=O)NC3CCCCC3)cc2)n1 [CBK268299],112.03
23,O=C1c2ccccc2C(=O)N1Cc1nc2ccccc2c(=O)n1CCCN1CCOCC1 [CBK268463],89.6135
24,COCCN1C(=O)CC2(C1=O)C(=O)N(CC(=O)c1ccccc1)c1ccccc12 (centres unmarked) [CBK075875],91.1192
25,O=C(Nc1ccc(Cl)cc1)Nc1ccc(OCC(O)CN2CCCCC2)cc1 (centres unmarked) [CBK086101],77.2559
26,COc1cncc(-c2cc(N3CCN(C(=O)c4ccco4)CC3)ncn2)c1 [CBK091121],103.84

# From publication PMC12040169 (PLOS Biology, 2025)
